Measurements from the BET-seq Pho4 binding data (Le et al. 2018).
The list shows a part of the results. The energies were worked out here from pooled read counts, against the library average; single values are noisy.

Biological target: T1, Pho4 (S. cerevisiae) (UniProt P07270)
T1 sequence: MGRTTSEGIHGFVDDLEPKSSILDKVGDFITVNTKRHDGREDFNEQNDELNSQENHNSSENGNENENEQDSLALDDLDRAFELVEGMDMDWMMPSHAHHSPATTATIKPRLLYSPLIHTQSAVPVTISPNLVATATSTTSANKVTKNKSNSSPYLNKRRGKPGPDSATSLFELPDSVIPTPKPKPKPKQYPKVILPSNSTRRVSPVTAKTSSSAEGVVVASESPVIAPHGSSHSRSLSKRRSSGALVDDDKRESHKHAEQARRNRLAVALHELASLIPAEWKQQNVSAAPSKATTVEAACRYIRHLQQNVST
Assay: relative binding free energy (BET-seq); higher = weaker binding
Details: reference: library average

Row | Sequence | relative binding free energy
1 | TAAGTCACGTGGAGAG | 0.24 kcal/mol
2 | ATTATCACGTGGGCAT | -0.12 kcal/mol
3 | GCCAGCACGTGTGGGG | 0 kcal/mol
4 | GTTTGCACGTGGGAAC | 0.01 kcal/mol
5 | AGAGACACGTGAAGGG | 0.26 kcal/mol
6 | ATTGACACGTGAGTCG | 0.37 kcal/mol
7 | TTTGTCACGTGGTTAG | 0.16 kcal/mol
8 | TATTTCACGTGATTGG | 0.46 kcal/mol
9 | TTGTACACGTGCTGAG | 0.02 kcal/mol
10 | GTGAGCACGTGTCTTT | -0.04 kcal/mol
11 | ATCTTCACGTGGCGGG | 0.35 kcal/mol
12 | CTGGTCACGTGGGCTG | -0.1 kcal/mol
13 | GCTTGCACGTGGTTTG | -0.14 kcal/mol
14 | AGCCGCACGTGGGGTT | -0.12 kcal/mol
15 | TATTTCACGTGTCTGT | 0.2 kcal/mol
16 | AAGTGCACGTGAGGAC | 0.23 kcal/mol
17 | AAGTACACGTGGAGGA | 0.13 kcal/mol
18 | ATTGGCACGTGCTGGT | -0.29 kcal/mol
19 | TTCGTCACGTGGGTGG | 0.01 kcal/mol
20 | GAGGGCACGTGGAAGA | -0.05 kcal/mol
21 | GCGGTCACGTGATGGA | 0.24 kcal/mol
22 | ATTGTCACGTGAACGT | 0.28 kcal/mol
23 | TTCAACACGTGCGGGG | 0.07 kcal/mol

Row | Sequence | relative binding free energy
24 | AGGGACACGTGGCGGT | -0.07 kcal/mol
25 | GTGGTCACGTGATTTT | 0.26 kcal/mol
26 | TGAATCACGTGGTAGT | 0.16 kcal/mol
27 | GTGGGCACGTGGCTCT | -0.06 kcal/mol
28 | GGGCTCACGTGTATTA | 0.33 kcal/mol
29 | GGTATCACGTGGCTTA | 0.1 kcal/mol
30 | GTCTGCACGTGAAGGT | 0.28 kcal/mol
31 | GGTAGCACGTGAGTAG | 0.2 kcal/mol
32 | ATTGACACGTGGGTAT | -0.05 kcal/mol
33 | GGAAACACGTGGTTGA | 0.03 kcal/mol
34 | TAGGACACGTGCGTTT | 0.1 kcal/mol
35 | TGTAGCACGTGCGGCT | -0.17 kcal/mol
36 | TCCGGCACGTGGGGGA | -0.2 kcal/mol
37 | CTTGGCACGTGTTGAT | -0.07 kcal/mol
38 | CGTTGCACGTGGAAGG | 0.02 kcal/mol
39 | CGGTACACGTGTAATG | 0.37 kcal/mol
40 | AGTGCCACGTGTGTGG | -0.11 kcal/mol
41 | TTGATCACGTGTCATT | 0.12 kcal/mol
42 | TGAATCACGTGTAAAG | 0.26 kcal/mol
43 | TATTACACGTGGCAGT | 0.01 kcal/mol
44 | TGGTTCACGTGATCTG | 0.24 kcal/mol
45 | AAGGTCACGTGTTGAG | 0.13 kcal/mol
46 | TAGAGCACGTGAGATT | 0.31 kcal/mol

Row | Sequence | relative binding free energy
47 | AACAACACGTGGTGTG | 0 kcal/mol
48 | TGTTGCACGTGGCGGC | -0.07 kcal/mol
49 | AGTGGCACGTGCGCGG | -0.27 kcal/mol
50 | TTCATCACGTGTGAGG | 0.15 kcal/mol
51 | ATTGTCACGTGTTTAA | 0.13 kcal/mol
52 | GATATCACGTGGGTAA | 0.13 kcal/mol
53 | GGAAGCACGTGGAGGA | -0.16 kcal/mol
54 | CAGGTCACGTGGTGCG | 0 kcal/mol
55 | TTAAGCACGTGTGAGG | -0.01 kcal/mol
56 | AGTTACACGTGCTTGG | 0.19 kcal/mol
57 | TGGGTCACGTGTTTTA | 0.17 kcal/mol
58 | TTAGTCACGTGTGCAT | 0.12 kcal/mol
59 | CTTGGCACGTGAGCGT | -0.15 kcal/mol
60 | CAAGTCACGTGGGGTA | -0.1 kcal/mol
61 | GGCTGCACGTGTTGCT | 0.04 kcal/mol
62 | TTACGCACGTGGTTGT | -0.24 kcal/mol
63 | ACTGTCACGTGGATGG | 0.02 kcal/mol
64 | TGGTTCACGTGTTGGC | 0.37 kcal/mol
65 | TTTGTCACGTGTATGC | 0.08 kcal/mol
66 | CTTTACACGTGGTAGG | -0.05 kcal/mol
67 | AATATCACGTGATATG | 0.35 kcal/mol
68 | TCCGTCACGTGAGGGG | 0.29 kcal/mol
69 | CTGTGCACGTGTCGGA | 0.06 kcal/mol

Row | Sequence | relative binding free energy
70 | GCTTGCACGTGGTCGT | -0.06 kcal/mol
71 | GGATGCACGTGTAGGA | -0.14 kcal/mol
72 | TCTTTCACGTGTGTAG | 0.21 kcal/mol
73 | AATTACACGTGCGGGG | 0.07 kcal/mol
74 | TGCGACACGTGGTTTG | -0.12 kcal/mol
75 | TTGCGCACGTGATGTG | -0.08 kcal/mol
76 | AAGAGCACGTGGTAGG | -0.25 kcal/mol
77 | TCATTCACGTGGATTT | 0.33 kcal/mol
78 | GTATTCACGTGTACGT | 0.22 kcal/mol
79 | AGTATCACGTGATCTT | 0.26 kcal/mol
80 | CGGATCACGTGGTATT | 0.11 kcal/mol
81 | CTGGGCACGTGTTATT | -0.08 kcal/mol
82 | TTGGCCACGTGTTTGG | 0.02 kcal/mol
83 | ATTCTCACGTGGGAGT | 0.04 kcal/mol
84 | GTGTCCACGTGGGCGT | -0.23 kcal/mol
85 | TATTACACGTGGATAT | 0.03 kcal/mol
86 | GTCAGCACGTGGAGGG | -0.14 kcal/mol
87 | TAGTACACGTGTTGCA | 0.12 kcal/mol
88 | TTGACCACGTGGTGAG | -0.13 kcal/mol
89 | ATGGTCACGTGGTTAA | -0.06 kcal/mol
90 | TAGTGCACGTGACGGG | 0.17 kcal/mol
91 | TTGGTCACGTGGAACG | 0.11 kcal/mol
92 | GGATTCACGTGGGAAG | 0.25 kcal/mol

Row | Sequence | relative binding free energy
93 | TGGGCCACGTGTTGGC | -0.13 kcal/mol
94 | TATATCACGTGGTTAG | 0.06 kcal/mol
95 | TTATACACGTGTTTTT | 0.1 kcal/mol
96 | CGAGTCACGTGATAGG | 0.08 kcal/mol
97 | GTGCTCACGTGGCTTT | 0.26 kcal/mol
98 | CTTTACACGTGGTTGC | 0.15 kcal/mol
99 | GTGAACACGTGGGCTG | -0.12 kcal/mol
100 | TGCGTCACGTGAGGTT | 0.3 kcal/mol
101 | GGTCGCACGTGGCGAT | 0 kcal/mol
102 | ATGGCCACGTGAGGGC | 0.09 kcal/mol
103 | TCGTGCACGTGGTTTA | -0.08 kcal/mol
104 | GGTGCCACGTGGAGGG | -0.05 kcal/mol
105 | AGGGACACGTGGGGCG | -0.03 kcal/mol
106 | TGTGTCACGTGGACTT | 0.05 kcal/mol
107 | TGTGGCACGTGGACTA | -0.1 kcal/mol
108 | GTTGCCACGTGTAGTG | -0.03 kcal/mol
109 | AGTTTCACGTGAATCG | 0.33 kcal/mol
110 | TGAGCCACGTGTGTTT | 0.06 kcal/mol
111 | AGGGGCACGTGCGTAG | -0.15 kcal/mol
112 | GGGTCCACGTGGTAGC | 0.09 kcal/mol
113 | TTTGGCACGTGGTAAT | -0.07 kcal/mol
114 | GGGGCCACGTGAGAGT | 0.19 kcal/mol
115 | ATGGGCACGTGTAAAT | 0.08 kcal/mol
